Some of the results follow.
Test system: PfHDP1 homeodomain (GST-tagged)
Assay: gcPBM binding intensity (ln(normalized median fluorescence intensity)); higher = stronger DNA binding
Procedure, shortened: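 An Agilent 4 × 180k array carrying primer-extended double-stranded 36-bp intergenic genomic probes and negative controls received GST-tagged P. falciparum DNA-binding domains expressed in E. coli, about 25 μg on average, for 1 h. The binding buffer contained 1× PBS, 1% milk, 0.2 mg/ml BSA, 0.5% salmon testes DNA and 0.03% Triton X-100. Binding intensity is the top Masliner-normalised natural-log median intensity across replicate spots of either probe orientation, read after Alexa488 anti-GST antibody staining and a 488 nm scan.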

| Sequence | gcPBM binding intensity (ln) |
| --- | --- |
| AAAAAAAAAAAAAAATGTACATTATACACATTATAT [XGTACX_site6824] | 6.99 |
| ATAATATATATTAATACACACACACCGATATATATA [CACACA_site9261] | 7.26 |
| GACCAATACTTTAAAAGTACAAACCTTATTTTATTT [XGTACX_site2718] | 6.45 |
| AAACAAATGTACAAAGTGCATATTTTTTTCAAAAGG | 7.84 |
| ACATATGTATAATAATGTACGCATTAAATATAATTA [XGTACX_site7851] | 6.27 |
| AAAAAAAAATAAAATAAAATAAAATAAAATAATATA [CACACA_negctrl_site1798] | 6.26 |
| TATATAAATAGACACACACACACATATAAATAAATA [CACACA_site7855] | 7.01 |
| TTTCAATGCATAAAAGTGCGCAATAATTTAAAGATC | 8.09 |
| AGGAGGATATTACACAGTACCCAGGAAATCTACGGA [XGTACX_site4878] | 6.32 |
| TATTTTATAAATACAAGTAAAATTAAATATATAATA [XGTACX_negctrl_site221] | 6.14 |
| TTGTACTACAATCCTTTATTTATTTAAACCTGTATG [CACACA_negctrl_site428] | 6.42 |
| TTTTAAAGAAAAAAATGTACAAAATTTTTATTTTAA [XGTACX_site1496] | 5.85 |
| AATGTGATAATATACACACACGCATATATATATATA [CACACA_site323] | 9.36 |
| CTGTGTAATTTAAATTGTACGTTTGAAAAAAATAAA [XGTACX_site5667] | 6.58 |
| AAAACACTTATGGATTGTACAATAAAAATTATATTA [XGTACX_site7042] | 6.54 |
| TATGTGAATATAATCACACACAATACGGAAAGAGAC [CACACA_site7311] | 8.1 |
| TTTTTTTTTTATAAGGCACACATGAATATTTATACA [CACACA_site1316] | 6.38 |
| TATATGTAATATTATACATGCATACATAATATATAT [TGCATGCA_site558] | 6.52 |
| ACCCACGTAAATTAAGCATGCCTTCCGTTATATTTA [TGCATGCA_site365] | 6.98 |

| Sequence | gcPBM binding intensity (ln) |
| --- | --- |
| TTTTACTAAATATATACACACATTATGCATATATAT [CACACA_site3287] | 7.04 |
| TAAATCATGGGATAAGCATGCGCGCACATGTTTGTT [TGCATGCA_site768] | 7.12 |
| TTTATTTATTAAGAATGTACATGTATTTGTTAAATA [XGTACX_site4465] | 6.1 |
| AAAAGGAATTATAGGAAATAAATATATACAAATATA [TGCATGCA_negctrl_site528] | 6.3 |
| CCATTTGATAATAATGCACACCACATATATTTATAT [CACACA_site9002] | 10.1 |
| CGATTTTTTAAGTTTGTGCACTTAAAAACTATAACA | 9.61 |
| TATTTCAAAATAAAATAAAATATATATATATGTATA [XGTACX_negctrl_site416] | 6.7 |
| TATATGTCAATATCTACACACATATAGGTAATTATT [CACACA_site7475] | 6.35 |
| TATACTATACAACACATACACACAAAAAAAAAAAAA [CACACA_site537] | 6.57 |
| TTCTGTGTGTATTGGCGTACAATTATTTTGCCTACA [XGTACX_site205] | 6.8 |
| ACATTCACAAAATTTTGTACACATATATATATATAT [XGTACX_site3518] | 9.43 |
| GTATTATCTGCTTTTTGTACACATATATTTAAAAAA [XGTACX_site7603] | 7.34 |
| AAGGAGCCTATGAACACACACATGTACATATATTAA [CACACA_site4084] | 6.52 |
| ATACTATTATATATATGTACATATATATGATGCTCT [XGTACX_site1771] | 8.41 |
| TTATAATATATATGTAGTACTGTTTTTTTCTATTTT [XGTACX_site7749] | 6.64 |
| TGTACAAATATGTACACACACACATATATATATATA [CACACA_site584] | 9.36 |
| TATTATTTTAAAAATGCATGTTCATATGAAATAATA [TGCATGCA_site969] | 6.94 |
| TTCGTTCTTTTATGCACACTCAACATATAAATTAAA [CACACA_site1209] | 10.1 |
| ATATGACGTAGTGGTGTACACACATGGTACCTTTAT [CACACA_site8436] | 7.46 |

| Sequence | gcPBM binding intensity (ln) |
| --- | --- |
| AGTAAATAATTATATACATGCATTTACTAATATTTA [TGCATGCA_site952] | 6.44 |
| AATATATATTTATGTACACACTCCAATACAGATACA [CACACA_site5481] | 6.91 |
| CATATACATACACATACACACATACACCCATACACA [CACACA_site8514] | 7.31 |
| TGTAAAAAATTTAACACACACATATATAAATATGTA [CACACA_site7261] | 6.3 |
| ATATAATAGTATATATGTACATATATTTAAATACTA [XGTACX_site1135] | 6.55 |
| TATATTATAATTTGAAGTACATTTTAAATTAACTAA [XGTACX_site1013] | 6.01 |
| AAAAAAAAAAAACACACACACACACCCACAAAATAT [CACACA_site1447] | 6.92 |
| AAAAAAAAATACCTACGTACATATATATATTATATA [XGTACX_site3983] | 6.38 |
| CTTTATCTTCTCACGAAGATTGAATAAGGTATTCTT [XGTACX_negctrl_site307] | 5.58 |
| CAGACAATAAAGAAGTGTACACATATATCAATAAAA [XGTACX_site4515] | 7.31 |
| TTAATGCACTTTATTACACACACTAGTTCATTACCT [CACACA_site2294] | 10.2 |
| AGAGAGAGAAATACAAGTACATGTGAAACCAATCTA [XGTACX_site2767] | 6.69 |
| AAAAAATAAAAAAAAACACACACATACAAGCATATA [CACACA_site8451] | 6.8 |
| AAAAAAAACAAATACACACGCACACCGAAAAAAAAA [CACACA_site803] | 6.77 |
| TTCAACATAATATGCACACAAAAATTATGGAACGAA [CACACA_site2111] | 10.3 |
| AAAAAAAAAAAAATTGCACACAAAAAAAAAAAAAAA [CACACA_site8644] | 9.28 |
| TTTGTGTGTGCGTGTGCATGTTGTTTTTTTCTATAA [TGCATGCA_site17] | 8.6 |
| AATATAATAACTTATTGTACGAAATTATATCACCTT [XGTACX_site7883] | 6.44 |
| TATTCACATACAGAAACACACACATATATATAAATT [CACACA_site9232] | 6.84 |
